Measurements from the supplement of paper PMC9446081.
Among all 39,000 compounds or so, about 220 (0.56%) showed activity. This is one part of the list.

test system: Escherichia coli K-12 BW25113; experiment: relative growth (OD600 normalised to plate interquartile mean) (fraction); higher = less growth inhibition, active = 0.2 or less; conditions: 50 µM; LB; incubation time: overnight (16-24 h)
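Note: static incubation at 37 °C against the wild-type strain, values averaged over two biological replicates.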

Row | SMILES | relative growth
1 | C[C@H](CO)N1C[C@H](C)[C@@H](CN(C)S(=O)(=O)c2ccc(-c3ccccc3)cc2)OCc2cn(nn2)CCCC1=O | inactive: 1
2 | COc1ccc(NC(=O)Nc2ccc3c(c2)C(=O)N([C@@H](C)CO)C[C@H](C)[C@@H](CN(C)S(=O)(=O)c2cccs2)OCCCC[C@H](C)O3)cc1 | inactive: 1.02
3 | C[C@H]1CN([C@@H](C)CO)C(=O)c2cccc(NC(=O)Nc3ccc4c(c3)OCO4)c2O[C@H]1CN(C)Cc1ccc(-c2ccccc2)cc1 | inactive: 1.01
4 | C[C@@H]1CN([C@@H](C)CO)C(=O)c2cc(NC(=O)Cc3cn(C)c4ccccc34)ccc2O[C@H]1CN(C)Cc1ccc(-c2ccccc2)cc1 | inactive: 0.989
5 | C[C@H](CO)N1C[C@H](C)[C@@H](CN(C)Cc2ccccc2)Oc2ccc(NC(=O)Nc3ccc(C(F)(F)F)cc3)cc2CC1=O | inactive: 0.985
6 | C[C@@H]1CCCCO[C@@H](CN(C)S(=O)(=O)c2ccc(Cl)cc2)[C@@H](C)CN([C@@H](C)CO)C(=O)c2cc(NC(=O)Cc3ccccc3)ccc2O1 | inactive: 1.02
7 | CC(=O)OC1CC2C(C)(C)C(O)CCC2(C)C2CCC3(C)C(=CC(=O)OC3c3ccoc3)C12C (stereo not drawn) [3beta-HYDROXYDEOXODIHYDRODEOXYGEDUNIN] | inactive: 0.964
8 | C[C@@H]1CN([C@H](C)CO)C(=O)c2cc(NC(=O)CCCCCC(=O)Nc3ccccc3N)ccc2O[C@H]1CN(C)C(=O)Nc1ccc(C(F)(F)F)cc1 | inactive: 0.988
9 | C[C@H]1CN([C@@H](C)CO)C(=O)c2cccc(NS(=O)(=O)c3cn(C)cn3)c2O[C@@H]1CN(C)S(=O)(=O)c1cn(C)cn1 | inactive: 1.01
10 | CC(=O)N[C@H]1[C@H]([C@H](O)[C@H](O)CO)OC(C(=O)O)=C[C@@H]1NC(=N)N | inactive: 0.991
11 | O=C(C[C@@H]1CC[C@@H]2[C@H](COC[C@@H](O)CN2S(=O)(=O)c2ccccc2)O1)NCCN1CCCC1 | inactive: 0.994
12 | Cn1cnc(S(=O)(=O)N[C@H]2CC[C@@H](CC(=O)N3CCN(c4ccccc4)CC3)O[C@@H]2CO)c1 | inactive: 0.986
13 | C[C@@H]1CN([C@@H](C)CO)C(=O)Cc2cc(NS(=O)(=O)c3cccs3)ccc2O[C@@H]1CN(C)S(C)(=O)=O | inactive: 0.987
14 | O=C(C[C@@H]1CC=CC[C@H](NC(=O)OCC2c3ccccc3-c3ccccc32)C(=O)OC[C@@H](Cc2c[nH]c3ccccc23)NC1=O)N[C@@H](CO)Cc1ccccc1 | inactive: 0.992
15 | C[C@@H]1CCCCO[C@@H](CN(C)Cc2ccccc2)[C@H](C)CN([C@@H](C)CO)C(=O)c2cc(NC(=O)Nc3ccc(C(F)(F)F)cc3)ccc2O1 | inactive: 1.04
16 | COc1ccc(NC(=O)Nc2ccc3c(c2)C(=O)N([C@@H](C)CO)C[C@H](C)[C@H](CN(C)Cc2ccc(Oc4ccccc4)cc2)O3)cc1 | inactive: 0.989
17 | C[C@@H]1CCCCO[C@@H](CN(C)C(=O)Nc2cccc3ccccc23)[C@H](C)CN([C@H](C)CO)C(=O)c2cc(NS(=O)(=O)c3ccccc3)ccc2O1 | inactive: 1.01
18 | C[C@@H]1CN([C@@H](C)CO)S(=O)(=O)c2ccc(C#CC3(O)CCCC3)cc2O[C@H]1CN(C)C(=O)c1cccnc1 | inactive: 1

Row | SMILES | relative growth
19 | Cc1ccc(NC(=O)c2ccc(CN3CC[C@H](N(C)C)C3)c(C(F)(F)F)c2)cc1Nc1nccc(-c2cncnc2)n1 | inactive: 0.999
20 | COc1ccc(NC(=O)Nc2ccc3c(c2)C(=O)N([C@H](C)CO)C[C@H](C)[C@H](CN(C)C(=O)Nc2ccc(F)cc2)OCCCC[C@H](C)O3)cc1 | inactive: 1.02
21 | C[C@H](CO)N1C[C@H](C)[C@H](CN(C)Cc2ccc(Oc3ccccc3)cc2)Oc2c(NC(=O)Nc3cccc4ccccc34)cccc2C1=O | inactive: 1.01
22 | COCC(=O)Nc1ccc2c(c1)C(=O)N(C)[C@@H]1CC[C@H](CC(=O)N3CCc4ccccc4C3)O[C@@H]1CO2 | inactive: 1.02
23 | COc1ccc(/C=C/CN2CCC(C(=O)N[C@@H](c3ccc(-c4ccccc4)cc3)c3cnccn3)CC2)cc1 | inactive: 0.92
24 | COc1ccc(NC(=O)N(C)C[C@@H]2Oc3ncc(C#CCN(C)C)cc3C(=O)N([C@@H](C)CO)C[C@H]2C)cc1 | inactive: 0.981
25 | C[C@H](CO)N1C[C@H](C)[C@@H](CN(C)Cc2ccncc2)Oc2ccc(NS(=O)(=O)c3cccs3)cc2CC1=O | inactive: 1.05
26 | O[C@H]1[C@H](O)[C@@H](O)[C@H]2O[C@@H]2[C@@H]1O | inactive: 0.997
27 | Nc1nc(=O)c2[nH]c(=O)cnc2[nH]1 | inactive: 0.992
28 | CC(C)NC(=O)N(C)C[C@@H]1Oc2ccc(NC(=O)C3CCCCC3)cc2C(=O)N([C@@H](C)CO)C[C@H]1C | inactive: 1.01
29 | C[C@@H]1CCCCO[C@H](CN(C)Cc2ccncc2)[C@H](C)CN([C@@H](C)CO)C(=O)c2cc(NS(C)(=O)=O)ccc2O1 | inactive: 0.971
30 | NCCC[C@H](NC(=O)[C@@H]1CCCN1C(=O)[C@@H]1CSSC[C@H](N)C(=O)N[C@@H](Cc2ccc(O)cc2)C(=O)N[C@@H](Cc2ccccc2)C(=O)N[C@@H](CCC(N)=O)C(=O)N[C@@H](CC(N)=O)C(=O)N1)C(=O)NCC(N)=O | inactive: 0.98
31 | CC=CCC(C)C(O)C1C(=O)NC(CC)C(=O)N(C)CC(=O)N(C)C(CC(C)C)C(=O)NC(C(C)C)C(=O)N(C)C(CC(C)C)C(=O)NC(C)C(=O)NC(C)C(=O)N(C)C(CC(C)C)C(=O)N(C)C(CC(C)C)C(=O)N(C)C(C(C)C)C(=O)N1C (stereo not given) | inactive: 1.05
32 | C[C@@H]1CN([C@H](C)CO)C(=O)c2cccc(NC(=O)CCCCCC(=O)Nc3ccccc3N)c2O[C@@H]1CN(C)CC1CCCCC1 | inactive: 1.01
33 | CC(C)NC(=O)N[C@H]1C=C[C@@H](CC(=O)O)O[C@@H]1CO | inactive: 1.01
34 | Cc1noc(C)c1S(=O)(=O)Nc1cccc2c1O[C@@H](CN(C)Cc1ccc(-c3ccccc3)cc1)[C@@H](C)CN([C@H](C)CO)C2=O | inactive: 1.01
35 | C[C@@H]1CN([C@H](C)CO)C(=O)Cc2cc(NC(=O)Cc3ccccc3)ccc2O[C@@H]1CN(C)S(C)(=O)=O | inactive: 0.993
